The list shows a part of the results.

The labels stand for the following.
T1: UNK ZnF1-3 (human, UniProt Q9C0B0 31-174)
T1 sequence: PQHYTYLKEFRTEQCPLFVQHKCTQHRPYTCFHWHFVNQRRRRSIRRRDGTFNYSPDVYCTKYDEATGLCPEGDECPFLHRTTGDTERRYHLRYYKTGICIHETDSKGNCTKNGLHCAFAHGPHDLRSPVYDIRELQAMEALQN

B1: chr4:39523128:39523129:-_ENSG00000109814_ENST00000316423|hu_hu|FALSE|FALSE (ssRNA)
RNA: GGGAGUUCUACAGUCCGACGAUCACAUGUGGGUCCUCCAACAUAGCCUGCACCGAUGCAACAGAUCUUCUUAAUUUCAAACAUGAUUGUACCACUUCCCAGCAGCAAGCGCAGGGACCGCUCCUAUCCCGAUCGUUCGGACAGCAACAGAGGAUUGAGCAUCA
B2: chr12:120565580:120565581:-_ENSG00000089154_ENST00000300648|hu_hu|motif|central (ssRNA)
RNA: GGGAGUUCUACAGUCCGACGAUCUGGAGGAGGCAAUUUUCAGUUGUGUGUGGGUUUGAUUUAAGGCUUUGGCUGUGGUCGGUUGAUAUUAAAAUACUUUCUGGGAACGCCAUCUUCCAAGCUCCCCAUUGGAACAAAUGUAUUCAACAGAGGAUUGAGCAUCA
B3: chr4:17845017:17845018:+_ENSG00000109805_ENST00000514176|hu_mus|hu_hu_hu_mus_False|8_18 (ssRNA)
RNA: GGGAGUUCUACAGUCCGACGAUCGCUCUCUUAACUUGUAUCUUCAUUAAGGAACUCUGCAAGGUUAAGUUUACUUUUCUGUAGCGCAGCUGUUUUGGCUCGUCUGGGUAAUCUCAUUUCAUUUCUGAUUCUGGUUCCAUGAUCCAACAGAGGAUUGAGCAUCA
B4: chr22:46125322:46125323:+_ENSG00000130638_ENST00000252934|hu_mus|motif|central (ssRNA)
RNA: GGGAGUUCUACAGUCCGACGAUCAAAGAUAGAGAUGUCAUCCUUUGUCAGCUGCUCCUCACCCACUAGCUUGGCGGUCACGGUGUCGGACAGUGUGAUCCUUUCCUGGUUGCUGAGUUUGCCAUACAUAGCUUCCACCAGUUCCAACAGAGGAUUGAGCAUCA
B5: chrX:141883135:141883136:-_ENSMUSG00000041688_ENSMUST00000112835|mus_mus|FALSE|FALSE (ssRNA)
RNA: GGGAGUUCUACAGUCCGACGAUCCUUGCAUCAAUCUGAUUUCUAACUUAACACAUCUCUAAACGUCUAUCUCCCUUACCUAAUACCCUCCCACCCUUAACUUCCCUAGACCCCUGAAAACUCAUCUUAAUGGUACUAUCUGUACAACAGAGGAUUGAGCAUCA
B6: chr4:40633508:40633509:-_ENSMUSG00000028411_ENSMUST00000129021|mus_mus|FALSE|FALSE (ssRNA)
RNA: GGGAGUUCUACAGUCCGACGAUCGAAGAAGUGUACGCUUUAGUUCAGGAUUGAACGGAGCAUAGGCAAUGCGGACAGAUGCUAGCACUGCCCUUGGUCGCCGAGACGAGUGUCACCCGCCCCAGUGCUUCCUGAGGUGCUCUUCAACAGAGGAUUGAGCAUCA
B7: 114973512_114976336_1086_CDS_ENSG00000197323_ENST00000358465|human|control|control (ssRNA)
RNA: GGGAGUUCUACAGUCCGACGAUCAGUCUCAUUUACUUCUUUUAUCCUAUUCUGCACCUGAGUAGCUGCAAAAUGAACAUAAUUCUUCUUCUCAAGAAGUUUCGCCAGUAGAUUCUCAAUUGCACCCUUCUGAUUUUGAAAAGCCAACAGAGGAUUGAGCAUCA
B8: 33700149_33700269_704_3pUTR_ENSMUSG00000027677_ENSMUST00000099153|mouse|control|control (ssRNA)
RNA: GGGAGUUCUACAGUCCGACGAUCAAACAGAUCAACACCAUGAAAAAACCAAACUCCCGAAUAGAGCUAAUUCUUCCAAUCACUAUAUCACCACGUUCAAUAUCUCGGAAGAAGAGCUCUCUCCGGUCCAUGCUUGGCAUCUCCCAACAGAGGAUUGAGCAUCA
B9: chr1:163112212:163112213:-_ENSG00000143248_ENST00000313961|hu_hu|hu_hu_hu_mus_False|18_18 (ssRNA)
RNA: GGGAGUUCUACAGUCCGACGAUCUUUUAUUAUCAGUAAGAGUGAGUUACAUACUAGGCAAAGUAUUGGAUACAAUAAUCAGGAAACAAACACUAUUGGUCCAGAAUUUAAAACUUUUGGGAUAAAUUGCUGGCACAGGACUUACAACAGAGGAUUGAGCAUCA
B10: 79510595_79510715_177_CDS_ENSG00000171033_ENST00000352966|human|control|control (ssRNA)
RNA: GGGAGUUCUACAGUCCGACGAUCACUUGCAGAGGAAACCAGGAUAUCAUGUAUUGCAUUUCUUCUACCUGUUCUUCCUGAAGCAAUAAAAUCUGCAUAUGUAGUUUCCACAUCAGUCAUUGCUACCAAAUAUCCACAUAGCAGCAACAGAGGAUUGAGCAUCA
B11: chr5:128448638:128448639:+_ENSG00000066583_ENST00000173527|hu_mus|hu_hu_hu_mus_False|48_68 (ssRNA)
RNA: GGGAGUUCUACAGUCCGACGAUCGGCACUCGCCUUAAUUAGGUUCUGAAUUUCCUUGAACUUCGGGUGGUCCUUAUCAGCCACCAGCUGAAGCAGAACAGCCUCACUAGUGGUCACGAUGAUCCCAGUGCGGGCAAGACGCUCCAACAGAGGAUUGAGCAUCA
B12: chr4:53728692:53728693:+_ENSG00000128045_ENST00000248706|hu_hu|FALSE|FALSE (ssRNA)
RNA: GGGAGUUCUACAGUCCGACGAUCACAGCAGUCGGAGGCCGCGGCGUUGCCCGGCGCGGGGUACUCGGCGAUGGUGCACAUGUUCUGAAUGAGGCGCAUCGCCUCGGCUGCGGCGCACCGCGCGGGAAGGGACUGAGGGACUGGCAACAGAGGAUUGAGCAUCA
B13: chr1:163116108:163116109:-_ENSG00000143248_ENST00000313961|hu_hu|motif|central (ssRNA)
RNA: GGGAGUUCUACAGUCCGACGAUCGUACCUUAAAAGUGUCUCACCUAGAAGGCCUCUACCUGUAAUCACAUUAAUUUUUCGGAAGACAAUUUGGUGUUUUGAAGAUAAAUGUCAUUAGUCUAUGAUAAUAGCAUCAUAGGACAACAACAGAGGAUUGAGCAUCA
B14: chr8:47717725:47717726:+_ENSMUSG00000031628_ENSMUST00000093517|mus_mus|motif|central (ssRNA)
RNA: GGGAGUUCUACAGUCCGACGAUCGAAGUUCUUAUUAUUAAUUAUUAUGCAUAUGCCCAUUUCAGGAUAAUCCAUUUUGUAACGGCUGUCCAGAUAGAUCCCAGAGUCCACUGACUUGCUCCCAUGUAUGGUCUUUACUUCAAACAACAGAGGAUUGAGCAUCA
B15: 72621507_72622045_3609_CDS_ENSMUSG00000002341_ENSMUST00000002412|mouse|control|control (ssRNA)
RNA: GGGAGUUCUACAGUCCGACGAUCUGCUGGAGGGGGACCACACAGCACUGUACCCUUCUUGCAGACAUAGGGUAGGUUGUAGUUGCAGGGGACAUCAUUCCAGCGCCCACUCUCAUGUGCCACCAUCACCACACAAUCCUCCCCCAACAGAGGAUUGAGCAUCA
B16: 118491051_118492415_1553_CDS_ENSG00000065183_ENST00000349139|human|control|control (ssRNA)
RNA: GGGAGUUCUACAGUCCGACGAUCGAAUUUGACAGAUUUAUCUGCACCACCUGUCACAAAGCCACGCUGAUCUGGAGAGAGGGACAUGGACCACAAAGCUCCAUCAUGUGCAUCUAUUGUCUCCAGCAGAUUCCCUGAAGCCAACAACAGAGGAUUGAGCAUCA
B17: chr3:105770834:105770835:+_ENSMUSG00000000561_ENSMUST00000010278|mus_mus|FALSE|FALSE (ssRNA)
RNA: GGGAGUUCUACAGUCCGACGAUCACAGGAAAACACUCAUCUCUCACACACAACACCAAGGAAGGAAAGGGUGAACAAGAGCUACACUGCAGGGCCAAAUUUAUUCACCCAGAAAAUGGAUUUGACUCAGUAUAACAGGGACUUCAACAGAGGAUUGAGCAUCA
B18: chr4:47850210:47850211:-_ENSG00000170448_ENST00000381538|hu_mus|FALSE|FALSE (ssRNA)
RNA: GGGAGUUCUACAGUCCGACGAUCUAUGUCAGGAGAUUUAAAGGAUCAUUAAUCCACACCAUGGAAGAUGUACCACAUAAGCACUGCCACCACAACUGCACACACGGGAAGGAGGUAGGACUUAUACUUCUGCCAAGGCGAGAGCAACAGAGGAUUGAGCAUCA
B19: chr4:76721835:76721836:+_ENSG00000138768_ENST00000264904|hu_mus|hu_hu_hu_mus_True|8_8 (ssRNA)
RNA: GGGAGUUCUACAGUCCGACGAUCGUUUGGCUGGGGUUUCUGAGACGCUCUGGAAUAUAACUCAUGUUUGCUAAUAAAUCCUAGUUUCUCUAUGAAAUUCUCUUUGCCAAUCCUCUUCUCUAUUAGUGUUUUAGCUUUCUCUUUCAACAGAGGAUUGAGCAUCA
B20: chr8:74858975:74858976:-_ENSG00000154582_ENST00000284811|hu_mus|hu_hu_hu_mus_True|68_68 (ssRNA)
RNA: GGGAGUUCUACAGUCCGACGAUCGACCUUGUAGGUAAAAUACAUGCACACUUUUGAUAGCACAUGUGAAGGUAUCUCUCUAAAAUUGACCUCGUUGGUUUCAUUCUCAGCAAACUGACCUGGACCACUCAACAUAGCCUUUAUCAACAGAGGAUUGAGCAUCA
B21: 47484838_47484958_827_CDS_ENSMUSG00000039740_ENSMUST00000044148|mouse|control|control (ssRNA)
RNA: GGGAGUUCUACAGUCCGACGAUCGUGCUCCACGUUCUCCGGGAUCCUAUCGUCAUAACCACCGGCCAUGAAGAGAUGAACCUUAUCCCACUCUUGAGAUGGUAACCGAUUCCGAAGCUGCACCAAGGAUCUCAGUGCCAAGGGCAACAGAGGAUUGAGCAUCA
B22: chr3:105482444:105482445:-_ENSMUSG00000027905_ENSMUST00000090680|mus_mus|FALSE|FALSE (ssRNA)
RNA: GGGAGUUCUACAGUCCGACGAUCUUUCACAGGAAGCUUUGGUUUGCUGUGCUUUGGCCUGGCUGACAGUGCAGAUGCAGAAGUAUUUCUAGGGGAAGGCGUUUGGUUCCCAGGCGUUCUUUGAGACUGGAAGGCUCUCUCUAGCAACAGAGGAUUGAGCAUCA

This experiment deals with T1, UNK ZnF1-3. As to the kind of experiment: nsRBNS (natural sequence RNA bind-n-seq); RBNS binding buffer (assumed for nsRBNS): 25 mM Tris pH 7.5, 150 mM KCl, 3 mM MgCl2, 0.01% Triton X-100, 500 ug/ml BSA, 20 U/ml SUPERase-In, 4 C; UNK is unkempt and MSI1 is Musashi-1; names of the RNAs are library labels; protein concentration not given here; high values mean tight binding.
As for B1, the binding signal amounted to 1.32 enrichment R.

B2 returned a binding signal of 1.43 enrichment R.

B3 displayed a binding signal of 0.366 enrichment R.

The molecule B4 displayed a binding signal of 0.811 enrichment R.

B5: the binding signal worked out at 2.03 enrichment R.

For the molecule B6, the binding signal came out at 0.571 enrichment R.

In the case of B7, the binding signal is 0.695 enrichment R.

B8 came in with a binding signal of 0.442 enrichment R.

For the molecule B9, the binding signal worked out at 1.29 enrichment R.

The molecule B10 had a binding signal of 0.891 enrichment R.

With B11, the binding signal is 0.618 enrichment R.

Molecule B12 came in with a binding signal of 0.962 enrichment R.

In turn, B13 gave a binding signal of 1.41 enrichment R.

With B14, the binding signal amounted to 1.15 enrichment R.

B15 gave a binding signal of 1.15 enrichment R.

Regarding B16, the binding signal was found to be 1.32 enrichment R.

B17 yielded a binding signal of 1.73 enrichment R.

B18: the binding signal was found to be 0.937 enrichment R.

B19 had a binding signal of 0.532 enrichment R.

Turning to B20, the binding signal amounted to 0.796 enrichment R.

As for B21, the binding signal came out at 0.96 enrichment R.

B22 yielded a binding signal of 0.868 enrichment R.

Source of the values: article PMC12136788.
